Measurements taken from the supplement of paper PMC3334620.
In all, about 33,000 sequences were measured (“E-score (-0.5 to 0.5)”: median about -0.054, highest 2% from about 0.39 on). Some of the results follow.

Target: Ylr278c (UniProt Q05854)
Assay: PBM E-score (8-mer binding enrichment) (E-score (-0.5 to 0.5)); higher = stronger / more preferred TF binding; most listed sequences are background and not binding sites
Details: protein concentration: 200 nM; construct: GST-DNA-binding domain
Description: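 Universal 'all 10-mer' protein binding microarrays (Agilent AMADID 015681) probed with GST-tagged S. cerevisiae TFs (full-length or DBD) made by in vitro transcription/translation (PURExpress), about 100-200 nM. Bound TF was detected with fluorescent anti-GST. Each ungapped 8-mer (which stands for itself and its reverse complement) is scored by the PBM enrichment score (E-score), a modified Wilcoxon-Mann-Whitney statistic from -0.5 to +0.5, computed with the Universal PBM Analysis Suite. Scale: above 0.35 generally sequence-specific binding.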

Row | Sequence | PBM E-score
1 | GTGTAAAC | -0.0414
2 | ACCGGGGA | 0.302
3 | ACACTGCA | -0.16
4 | ACGTTTGG | -0.233
5 | AGCCAACC | 0.124
6 | AAGACGAC | -0.0844
7 | TGAGATCA | -0.137
8 | CTTCTTCC | 0.0364
9 | ACCAGAAC | -0.062
10 | AGAAAGGA | -0.159
11 | ATTTAACA | -0.0471
12 | AATCAAAT | 0.0839
13 | CGCGTCAG | -0.162
14 | GAGAGGAA | -0.128
15 | ATACTCAT | -0.2
16 | CCAATTCC | 0.227
17 | ATTATCGC | 0.06
18 | CGGAAAAA | 0.446
19 | AACTGTGG | -0.0559
20 | AGGCAGGC | -0.163
21 | ATGGACAA | -0.201
22 | AGGGTATG | -0.328
23 | ATTTCTAC | 0.0337
24 | ACTACTTG | -0.25
25 | GCACGTGA | -0.255

Row | Sequence | PBM E-score
26 | AACTTAAC | 0.027
27 | CAATCCCG | 0.368
28 | GAAGCACA | 0.00269
29 | ATACCGTG | 0.0569
30 | CCCCGGGG | 0.412
31 | ACCTGGGC | -0.243
32 | GGTTGAAC | -0.0541
33 | CATTAACG | 0.109
34 | AAGAATCA | 0.031
35 | GCGTGTCC | 0.129
36 | ACACATGT | -0.0941
37 | CATTCAGA | -0.228
38 | ATCCGCTA | 0.196
39 | ATTAAGAC | -0.217
40 | CCTGATTC | 0.0241
41 | ATATCACG | -0.0275
42 | CGCATAAA | -0.00552
43 | GCACTCAA | -0.111
44 | ACCCCGGA | 0.445
45 | TGTACACA | -0.216
46 | AAAAGGCA | -0.112
47 | AAAGTGCT | -0.204
48 | AGCACCGA | 0.21
49 | ATACTGGA | 0.0349
50 | AAAGGATT | -0.128

Row | Sequence | PBM E-score
51 | CAACCACA | 0.0392
52 | CTGACAAA | -0.194
53 | AAGGCAAT | -0.108
54 | ATAGCCTG | -0.24
55 | AAGCCCAG | -0.143
56 | GGTGTTGA | -0.138
57 | CGCCCCGC | 0.328
58 | ACATAGAC | -0.142
59 | GACTGCAA | -0.271
60 | ACACATCC | -0.0358
61 | AACGTACT | -0.0443
62 | TCCAATAA | 0.0431
63 | CCGGGTGA | 0.299
64 | CTCGGCAG | 0.16
65 | AAGTGCGT | -0.076
66 | AAGCACCT | -0.175
67 | GCATAAAA | -0.0172
68 | CACCTGCG | 0.107
69 | ATATTGGC | -0.141
70 | ACTCGTGA | -0.295
71 | CGTCCCGC | 0.205
72 | AACGTTCG | -0.0135
73 | AAGATAGC | 0.0485
74 | AAGCTTTG | -0.0399
75 | ATGTGAGC | -0.253

Row | Sequence | PBM E-score
76 | TCAGGTCA | -0.0552
77 | GAAAGAGA | 0.0627
78 | ACCGTCCC | 0.0916
79 | CTTCTAGA | -0.215
80 | ATCCGCTG | 0.138
81 | AACTTCCG | 0.433
82 | ACTTTAAT | -0.0435
83 | ATGCAGTA | -0.0142
84 | ACGGAGCG | 0.396
85 | AACAGAAT | -0.189
86 | GTATTCAA | 0.0214
87 | GATACACA | -0.184
88 | CATTTTGG | -0.181
89 | CTAAATCA | -0.21
90 | AGAAATAG | -0.123
91 | GTACCCGA | 0.0289
92 | ACACTGCT | -0.345
93 | CTCTCCGA | 0.394
94 | TGCCAGAA | -0.232
95 | GAGAAGAA | 0.0471
96 | ACTGAGAG | -0.25
97 | AGCGATTG | -0.259
98 | ACTTCTAA | 0.038
99 | GCCCGTCC | 0.153
100 | TACTTGCA | -0.111

Row | Sequence | PBM E-score
101 | ACGGTACG | -0.0708
102 | CCTACATA | 0.0183
103 | GGGTCTGA | -0.0165
104 | AGTCGAAA | -0.105
105 | AGGTTCTG | -0.265
106 | GTGGCATA | -0.175
107 | TAGTTTCA | -0.0254
108 | GTAAATAA | -0.157
109 | GACAGTCA | -0.172
110 | AGTAGCTC | 0.0277
111 | ATATGCCG | 0.253
112 | TACATGAA | -0.162
113 | CACCTCGG | 0.268
114 | ACTGGACT | -0.329
115 | GGAACTCC | 0.393
116 | AGGACATA | -0.278
117 | GACATAAA | -0.0366
118 | GTCCTGTA | 0.102
119 | GTATCCTA | -0.201
120 | CACAGACG | -0.17
121 | ATTAGGTC | -0.0155
122 | AGCACTTA | -0.124
123 | GTTGTTCA | -0.11
124 | TAGTACTA | -0.387
125 | GAATTAAA | -0.0378

Row | Sequence | PBM E-score
126 | ACCGCCGG | 0.403
127 | CTACGTTA | -0.0506
128 | ATTATTAG | -0.0802
129 | GGTCTCAA | -0.12
130 | AGCATGCT | -0.352
131 | CGACACAG | 0.108
132 | CCCAACAA | -0.0374
133 | CTAGATCC | 0.0123
134 | CCTAAACC | -0.00994
135 | GCCTGTGA | -0.373
136 | GTCGTCAC | -0.152
137 | ACGGTGAA | 0.0953
138 | ATTTTGGG | -0.0616
139 | CAAACTTA | -0.0135
140 | CACATACA | -0.223
141 | AACTACCA | -0.0978
142 | GGTCGTCA | -0.105
143 | CACCACGG | -0.00474
144 | AAGCTTAA | -0.176
145 | GCTCTGCA | -0.156
146 | CTAAACCC | 0.0252
147 | TTCTCAAA | -0.0763
148 | CCAGTTTC | -0.069
149 | CACCCAGG | -0.112
150 | CCACGGAG | 0.418

Row | Sequence | PBM E-score
151 | AAGCTAAG | -0.151
152 | TCCAAGAA | -0.169
153 | TATTGCGA | 0.0372
154 | CTGGTATA | -0.283
155 | TCCCGCCA | 0.182
156 | GGCTTATA | -0.101
157 | ACCGAGTA | 0.0881
158 | ATTGGGCG | 0.0375
159 | AATCACGC | 0.0211
160 | CTATTTAC | 0.0753
161 | ATATATTG | 0.0216
162 | GAGCTGAA | -0.0759
163 | CGTCTCAC | -0.156
164 | AATGCAAG | -0.16
165 | CAATCCGC | 0.197
166 | CGAGAGAC | -0.122
167 | GCGAGTGA | -0.0752
168 | AACATCAA | -0.0318
169 | ACTAAGAT | -0.101
170 | TGGTAAAA | 0.0307
171 | CGTAGGTC | -0.142
172 | ATAGAGGG | -0.076
